In one test the target is human dopamine type 3 receptor (CHO-hD3 membranes) (Homo sapiens (Human), UniProt P35462).
Chain of UniProt P35462 (P35462 whole entry): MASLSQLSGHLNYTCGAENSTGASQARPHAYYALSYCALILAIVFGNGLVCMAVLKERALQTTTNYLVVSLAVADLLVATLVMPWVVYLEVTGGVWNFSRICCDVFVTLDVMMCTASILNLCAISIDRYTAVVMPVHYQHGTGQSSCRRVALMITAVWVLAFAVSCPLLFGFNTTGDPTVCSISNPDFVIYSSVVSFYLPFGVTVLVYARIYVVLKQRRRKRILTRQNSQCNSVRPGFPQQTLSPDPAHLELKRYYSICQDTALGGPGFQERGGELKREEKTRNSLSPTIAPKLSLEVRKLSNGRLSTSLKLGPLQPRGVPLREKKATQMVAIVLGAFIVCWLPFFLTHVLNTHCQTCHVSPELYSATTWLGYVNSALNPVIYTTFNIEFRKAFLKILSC
Settings: not given
In the case of `Cn1c(SCCCN2C[C@H]3CCN(c4c(F)cc(F)cc4F)[C@H]3C2)nnc1-c1ccc(C(N)=O)nc1` [Example 206, 5-[5-({3-[(3aR,6aR or 3aS,6aS)-1-(2,4,6-trifluorophenyl)-octahydropyrrolo[2,3-c]pyrrol-5-yl]propyl}sulfanyl)-4-methyl-4H-1,2,4-triazol-3-yl]pyridine-2-carboxamide], the “D3 pKi” value is 8.32.

As to `Cn1c(SCCCN2C[C@H]3CCN(c4ccc(F)cc4)[C@H]3C2)nnc1-c1ccc(C(N)=O)nc1` [Example 200, 5-[5-({3-[(3aR,6aR or 3aS,6aS)-1-(4-fluorophenyl)-octahydropyrrolo[3,4-b]pyrrol-5-yl]propyl}sulfanyl)-4-methyl-4H-1,2,4-triazol-3-yl]pyridine-2-carboxamide], the “D3 pKi” value turned out to be 8.75.

For `Cn1c(SCCCN2C[C@@H]3CCN(c4c(F)cc(F)cc4F)[C@@H]3C2)nnc1-c1ccc(C(N)=O)nc1` [Example 205, 5-[5-({3-[(3aS,6aS or 3aR,6aR)-1-(2,4,6-trifluorophenyl)-octahydropyrrolo[2,3-c]pyrrol-5-yl]propyl}sulfanyl)-4-methyl-4H-1,2,4-triazol-3-yl]pyridine-2-carboxamide], the “D3 pKi” value was 9.19.

`Cn1c(SCCCN2C[C@H]3CCN(c4ccc(C(F)(F)F)cc4)[C@H]3C2)nnc1-c1ccc(C(N)=O)nc1` [Example 197, 5-[5-({3-[(3aR,6aR or 3aS,6aS)-1-[4-(trifluoromethyl)phenyl]-octahydropyrrolo[3,4-b]pyrrol-5-yl]propyl}sulfanyl)-4-methyl-4H-1,2,4-triazol-3-yl]pyridine-2-carboxamide]: the “D3 pKi” value was 9.03.

The test is the same for the next values; noted with them: displacement of 0.3 nM [3H]-Spiperone.
Regarding `Cn1nccc1-c1nnc(SCCCN2CC3CCN(c4c(F)cccc4F)C3C2)n1C` (centres unmarked) [Example 184, 3-({3-[1-(2,6-difluorophenyl)-octahydropyrrolo[3,4-b]pyrrol-5-yl]propyl}sulfanyl)-4-methyl-5-(1-methyl-1H-pyrazol-5-yl)-4H-1,2,4-triazole], the “D3 pKi” value amounted to 8.33.

Consider `Cn1c(SCCCN2CC3CCN(c4c(F)cc(F)cc4F)C3C2)nnc1-c1ccc(C(N)=O)nc1` (centres unmarked) [Example 204, 5-[4-methyl-5-({3-[1-(2,4,6-trifluorophenyl)-octahydropyrrolo[2,3-c]pyrrol-5-yl]propyl}sulfanyl)-4H-1,2,4-triazol-3-yl]pyridine-2-carboxamide], for which the “D3 pKi” value worked out at 8.98.

For `Cn1c(SCCCN2CC3CCN(c4ccc(C(F)(F)F)cc4)C3C2)nnc1-c1ccc(C(N)=O)nc1` (centres unmarked) [Example 195, 5-{4-methyl-5-[(3-{1-[4-(trifluoromethyl)phenyl]-octahydropyrrolo[3,4-b]pyrrol-5-yl}propyl)sulfanyl]-4H-1,2,4-triazol-3-yl}pyridine-2-carboxamide], the “D3 pKi” value came out at 9.11.

Take `Cl.Cl.Cl.Cn1c(SCCCN2C[C@H]3CCN(c4ccccc4C(F)(F)F)[C@H]3C2)nnc1-c1ccncc1` [Example 159, 4-[5-({3-[(3aR,6aR or 3aS,6aS)-1-[2-(trifluoromethyl)phenyl]-octahydropyrrolo[3,4-b]pyrrol-5-yl]propyl}sulfanyl)-4-methyl-4H-1,2,4-triazol-3-yl]pyridine trihydrochloride]: the “D3 pKi” value is 7.62.

`Cc1ncoc1-c1nnc(SCCCN2CCC3CCN(c4ccc(C(F)(F)F)cc4)CC32)n1C.Cl.Cl` (centres unmarked) [Example 244, 4-methyl-3-(4-methyl-1,3-oxazol-5-yl)-5-[(3-{6-[4-(trifluoromethyl)phenyl]-octahydro-1H-pyrrolo[2,3-c]pyridin-1-yl}propyl)sulfanyl]-4H-1,2,4-triazole dihydrochloride]: the “D3 pKi” value is listed as 7.39.

Turning to `Cn1c(SCCCN2C[C@@H]3CCN(c4ccc(C(F)(F)F)cc4)[C@@H]3C2)nnc1-c1cc[nH]c(=O)c1` [Example 166, 4-[5-({3-[(3aS,6aS or 3aR,6aR)-1-[4-(trifluoromethyl)phenyl]-octahydropyrrolo[2,3-c]pyrrol-5-yl]propyl}sulfanyl)-4-methyl-4H-1,2,4-triazol-3-yl]-1,2-dihydropyridin-2-one], the “D3 pKi” value is given as 7.81.

In the case of `Cn1c(SCCCN2CC3CCN(c4cccc(C(F)(F)F)c4)C3C2)nnc1-c1cnccn1` (centres unmarked) [Example 113, 2-{4-methyl-5-[(3-{1-[3-(trifluoromethyl)phenyl]-octahydropyrrolo[3,4-b]pyrrol-5-yl}propyl)sulfanyl]-4H-1,2,4-triazol-3-yl}pyrazine], the “D3 pKi” value came out at 9.65.

`Cl.Cl.Cn1nccc1-c1nnc(SCCCN2C[C@H]3CCN(c4ccccc4C(F)(F)F)[C@H]3C2)n1C` [Example 189, 3-({3-[(3aR,6aR or 3aS,6aS)-1-[2-(trifluoromethyl)phenyl]-octahydropyrrolo[3,4-b]pyrrol-5-yl]propyl}sulfanyl)-4-methyl-5-(1-methyl-1H-pyrazol-5-yl)-4H-1,2,4-triazole dihydrochloride]: the “D3 pKi” value is on record as 7.36.

With `Cc1ncoc1-c1nnc(SCCCN2CC3CCN(c4ccc(C(F)(F)F)cc4)C3C2)n1C.Cl.Cl` (centres unmarked) [Example 2, 4-methyl-3-(4-methyl-1,3-oxazol-5-yl)-5-[(3-{1-[4-(trifluoromethyl)phenyl]octahydropyrrolo[3,4-b]pyrrol-5-yl}propyl)sulfanyl]-4H-1,2,4-triazole dihydrochloride], the “D3 pKi” value is given as 8.76.

Turning to `Cc1ncoc1-c1nnc(CCCCN2CC3CCN(c4ccc(F)cc4)C3C2)n1C.Cl.Cl` (centres unmarked) [Example 217, 3-{4-[1-(4-fluorophenyl)-octahydropyrrolo[2,3-c]pyrrol-5-yl]butyl}-4-methyl-5-(4-methyl-1,3-oxazol-5-yl)-4H-1,2,4-triazole dihydrochloride], the “D3 pKi” value is 7.09.

In the case of `Cn1c(CCCCN2CC3CCN(c4ccc(C(F)(F)F)cc4)C3C2)nnc1C1CCOCC1` (centres unmarked) [Example 213, 4-methyl-3-(oxan-4-yl)-5-(4-{1-[4-(trifluoromethyl)phenyl]-octahydropyrrolo[2,3-c]pyrrol-5-yl}butyl)-4H-1,2,4-triazole], the “D3 pKi” value is 7.64.

For the molecule `Cn1c(SCCCN2CC3CCN(c4ccccc4C(F)(F)F)C3C2)nnc1-c1ccncc1` (centres unmarked) [Example 155, 4-{4-methyl-5-[(3-{1-[2-(trifluoromethyl)phenyl]-octahydropyrrolo[3,4-b]pyrrol-5-yl}propyl)sulfanyl]-4H-1,2,4-triazol-3-yl}pyridine], the “D3 pKi” value is on record as 8.25.

`COc1cc(N2CC[C@H]3CN(CCCSc4nnc(-c5cnccn5)n4C)C[C@H]32)ccc1F.Cl.Cl.Cl` [Example 128, 2-[5-({3-[(3aS,6aS or 3aR,6aR)-1-(4-fluoro-3-methoxyphenyl)-octahydropyrrolo[3,4-b]pyrrol-5-yl]propyl}sulfanyl)-4-methyl-4H-1,2,4-triazol-3-yl]pyrazine trihydrochloride]: the “D3 pKi” value is 8.56.

With `Cn1c(SCCCN2CC3CCN(c4ccc(F)cc4)C3C2)nnc1-c1ccc(C(N)=O)nc1` (centres unmarked) [Example 198, 5-[5-({3-[1-(4-fluorophenyl)-octahydropyrrolo[3,4-b]pyrrol-5-yl]propyl}sulfanyl)-4-methyl-4H-1,2,4-triazol-3-yl]pyridine-2-carboxamide], the “D3 pKi” value was 9.28.

`Cc1ncsc1-c1nnc(SCCCN2CC3CCN(c4ccc(C(F)(F)F)cc4)C3C2)n1C` (centres unmarked) [Example 164, 4-methyl-3-(4-methyl-1,3-thiazol-5-yl)-5-[(3-{1-[4-(trifluoromethyl)phenyl]-octahydropyrrolo[3,4-b]pyrrol-5-yl}propyl)sulfanyl]-4H-1,2,4-triazole]: the “D3 pKi” value is given as 8.26.

Consider `Cn1c(SCCCN2CC3CCN(c4ccc(F)cc4)C3C2)nnc1-c1ccc(=O)[nH]c1` (centres unmarked) [Example 176, 5-[5-({3-[1-(4-fluorophenyl)-octahydropyrrolo[2,3-c]pyrrol-5-yl]propyl}sulfanyl)-4-methyl-4H-1,2,4-triazol-3-yl]-1,2-dihydropyridin-2-one], for which the “D3 pKi” value came to 8.33.

Regarding `Cn1c(SCCCN2CC3CCN(c4cccc(C(F)(F)F)c4)C3C2)nnc1-c1ccc(=O)[nH]c1` (centres unmarked) [Example 178, 5-{4-methyl-5-[(3-{1-[3-(trifluoromethyl)phenyl]-octahydropyrrolo[3,4-b]pyrrol-5-yl}propyl)sulfanyl]-4H-1,2,4-triazol-3-yl}-1,2-dihydropyridin-2-one], the “D3 pKi” value is 9.07.

For the molecule `Cn1c(SCCCN2CC3CCN(c4ccc(C(F)(F)F)cc4)C3C2)nnc1-c1cc[nH]c(=O)c1` (centres unmarked) [Example 165, 4-{4-methyl-5-[(3-{1-[4-(trifluoromethyl)phenyl]-octahydropyrrolo[2,3-c]pyrrol-5-yl}propyl)sulfanyl]-4H-1,2,4-triazol-3-yl}-1,2-dihydropyridin-2-one], the “D3 pKi” value worked out at 8.13.

With `Cn1c(SCCCN2CC3CCN(c4c(F)cccc4F)C3C2)nnc1-c1ccc(=O)[nH]c1` (centres unmarked) [Example 177, 5-[5-({3-[1-(2,6-difluorophenyl)-octahydropyrrolo[3,4-b]pyrrol-5-yl]propyl}sulfanyl)-4-methyl-4H-1,2,4-triazol-3-yl]-1,2-dihydropyridin-2-one], the “D3 pKi” value is on record as 7.84.

Consider `Cl.Cl.Cn1c(SCCCN2CC3CCN(c4c(F)cccc4F)C3C2)nnc1-c1cnccn1` (centres unmarked) [Example 99, 2-[5-({3-[1-(2,6-difluorophenyl)-octahydropyrrolo[3,4-b]pyrrol-5-yl]propyl}sulfanyl)-4-methyl-4H-1,2,4-triazol-3-yl]pyrazine dihydrochloride], for which the “D3 pKi” value was 8.64.

As to `Cl.Cl.Cn1c(SCCCN2C[C@H]3CCN(c4ccccc4C(F)(F)F)[C@H]3C2)nnc1-c1ccc(=O)[nH]c1` [Example 183, 5-[5-({3-[(3aR,6aR or 3aS,6aS)-1-[2-(trifluoromethyl)phenyl]-octahydropyrrolo[3,4-b]pyrrol-5-yl]propyl}sulfanyl)-4-methyl-4H-1,2,4-triazol-3-yl]-1,2-dihydropyridin-2-one dihydrochloride], the “D3 pKi” value is given as 7.12.

In the case of `Cl.Cl.Cl.Cn1c(SCCCN2C[C@H]3CCN(c4ccc(C(F)(F)F)cc4)[C@H]3C2)nnc1-c1cccnc1` [Example 145, 3-[5-({3-[(3aR,6aR or 3aS,6aS)-1-[4-(trifluoromethyl)phenyl]-octahydropyrrolo[3,4-b]pyrrol-5-yl]propyl}sulfanyl)-4-methyl-4H-1,2,4-triazol-3-yl]pyridine trihydrochloride], the “D3 pKi” value amounted to 8.67.

These data come from patent US10273244B2, “Substituted hexahydropyrrolo[3,4-b]pyrroles and hexahydrocyclopenta[c]pyrroles as dopamine receptor modulators” (INDIVIOR UK LIMITED, priority 2015, dated 2019).
